# Some of the results follow.
# B1: P-Selectin (Homo sapiens), P16109 (protein)
# chain: MANCQIAILYQRFQRVVFGISQLLCFSALISELTNQKEVAAWTYHYSTKAYSWNISRKYCQNRYTDLVAIQNKNEIDYLNKVLPYYSSYYWIGIRKNNKTWTWVGTKKALTNEAENWADNEPNNKRNNEDCVEIYIKSPSAPGKWNDEHCLKKKHALCYTASCQDMSCSKQGECLETIGNYTCSCYPGFYGPECEYVRECGELELPQHVLMNCSHPLGNFSFNSQCSFHCTDGYQVNGPSKLECLASGIWTNKPPQCLAAQCPPLKIPERGNMTCLHSAKAFQHQSSCSFSCEEGFALVGPEVVQCTASGVWTAPAPVCKAVQCQHLEAPSEGTMDCVHPLTAFAYGSSCKFECQPGYRVRGLDMLRCIDSGHWSAPLPTCEAISCEPLESPVHGSMDCSPSLRAFQYDTNCSFRCAEGFMLRGADIVRCDNLGQWTAPAPVCQALQCQDLPVPNEARVNCSHPFGAFRYQSVCSFTCNEGLLLVGASVLQCLATGNWNSVPPECQAIPCTPLLSPQNGTMTCVQPLGSSSYKSTCQFICDEGYSLSGPERLDCTRSGRWTDSPPMCEAIKCPELFAPEQGSLDCSDTRGEFNVGSTCHFSCDNGFKLEGPNNVECTTSGRWSATPPTCKGIASLPTPGLQCPALTTPGQGTMYCRHHPGTFGFNTTCYFGCNAGFTLIGDSTLSCRPSGQWTAVTPACRAVKCSELHVNKPIAMNCSNLWGNFSYGSICSFHCLEGQLLNGSAQTACQENGHWSTTVPTCQAGPLTIQEASTSITAYKSEGESAEFSFPLNLGEESLQGELRWKAEKAPSSQSWITFSLKNQKVSVQKSTSNPKFQLSETLPLTLQIPQVSLQFAGSGNLTLTLDRGILYQEVNLVVMKVTQPDSNTLTCEVMGPTSPKMRLILKQENQEARVSRQEKVIQVQAPEAGVWQCLLSEGEEVKMDSKIQVLSKGLNSGGGSGGGTGGGDLAPQMLRELQETNAALQDVRELLRQQVKEITFLKNTVMECDACGLDRNLPPLAPLGPHPETLVKVKDAEDQLGARVGYIELDLNSGKILESFRPEERFPMMSTFKVLLCGAVLSRIDAGQEQLGRRIHYSQNDLVEYSPVTEKHLTDGMTVRELCSAAITMSDNTAANLLLTTIGGPKELTAFLHNMGDHVTRLDRWEPELNEAIPNDERDTTMPVAMATTLRKLLTGELLTLASRQQLIDWMEADKVAGPLLRSALPAGWFIADKSGAGERGSRGIIAALGPDGKPSRIVVIYTTGSQATMDERNRQIAEIGASLIKHWGPDYKDHDGDYKDHDIDYKDDDDKGPHHHHHH
# Assays:
# Test in all cases: glycan array binding signal (z-score within array); higher = stronger binding
# Details in all cases: glycan notation: IUPAC condensed, linker removed
# GlcNAc(b1-6)GalNAc = molecular target: GlcNAc(b1-6)GalNAc
# Method in brief: (§1)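 The binding signal is a Z-score computed within each array and averaged over linkers. Arrays of the same protein sequence at different concentrations or buffers were also averaged together. Data originate from 3228 arrays in the Consortium for Functional Glycomics database, kept only where the protein sequence was available.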
# GlcNAc3Prop(b1-4)GlcNAc = molecular target: GlcNAc3Prop(b1-4)GlcNAc
# Method in brief: as §1
# Kdn(a2-3)Gal(b1-3)GlcNAc = molecular target: Kdn(a2-3)Gal(b1-3)GlcNAc
# Method in brief: as §1
# Kdn(a2-3)Gal(b1-4)GlcNAc = molecular target: Kdn(a2-3)Gal(b1-4)GlcNAc
# Method in brief: as §1
# [1] = molecular target: Man(a1-2)Man(a1-2)Man(a1-3)Man
# Method in brief: as §1
# [2] = molecular target: Man(a1-2)Man(a1-2)Man(a1-6)[Man(a1-3)]Man
# Method in brief: as §1
# Man(a1-2)Man(a1-3)Man = molecular target: Man(a1-2)Man(a1-3)Man
# Method in brief: as §1
# [3] = molecular target: Man(a1-2)Man(a1-3)[Man(a1-2)Man(a1-6)]Man
# Method in brief: as §1
# [4] = molecular target: Man(a1-2)Man(a1-3)[Man(a1-2)Man(a1-6)]Man(a1-6)[Man(a1-2)Man(a1-2)Man(a1-3)]Man
# Method in brief: as §1
# [5] = molecular target: Man(a1-2)Man(a1-3)[Man(a1-2)Man(a1-6)]Man(a1-6)[Man(a1-2)Man(a1-2)Man(a1-3)]Man(b1-4)GlcNAc(b1-4)GlcNAc
# Method in brief: as §1
# [6] = molecular target: Man(a1-2)Man(a1-3)[Man(a1-6)]Man(a1-6)[Man(a1-2)Man(a1-3)]Man(b1-4)GlcNAc(b1-4)GlcNAc
# Method in brief: as §1
# [7] = molecular target: Man(a1-2)Man(a1-6)[Man(a1-3)]Man(a1-6)[Man(a1-2)Man(a1-2)Man(a1-3)]Man
# Method in brief: as §1
# [8] = molecular target: Man(a1-2)Man(a1-6)[Man(a1-3)]Man(a1-6)[Man(a1-2)Man(a1-2)Man(a1-3)]Man(b1-4)GlcNAc(b1-4)GlcNAc
# Method in brief: as §1
# Man(a1-3)[Man(a1-6)]Man = molecular target: Man(a1-3)[Man(a1-6)]Man
# Method in brief: as §1
# [9] = molecular target: Man(a1-3)[Man(a1-6)]Man(a1-6)[Man(a1-2)Man(a1-3)]Man(b1-4)GlcNAc(b1-4)GlcNAc
# Method in brief: as §1
# [10] = molecular target: Man(a1-3)[Man(a1-6)]Man(a1-6)[Man(a1-3)]Man
# Method in brief: as §1
# [11] = molecular target: Man(a1-3)[Man(a1-6)]Man(a1-6)[Man(a1-3)]Man(b1-4)GlcNAc(b1-4)GlcNAc
# Method in brief: as §1
# [12] = molecular target: Man(a1-3)[Man(a1-6)]Man(b1-4)GlcNAc(b1-4)GlcNAc
# Method in brief: as §1
# Man(a1-6)Man = molecular target: Man(a1-6)Man
# Method in brief: as §1
# Man(b1-4)GlcNAc = molecular target: Man(b1-4)GlcNAc
# Method in brief: as §1
# Neu5Ac(a2-3)Gal = molecular target: Neu5Ac(a2-3)Gal
# Method in brief: as §1
# [13] = molecular target: Neu5Ac(a2-3)Gal(b1-3)GalNAc
# Method in brief: as §1
# [14] = molecular target: Neu5Ac(a2-3)Gal(b1-3)GalNAc(b1-3)Gal(a1-4)Gal(b1-4)Glc
# Method in brief: as §1
# [15] = molecular target: Neu5Ac(a2-3)Gal(b1-3)GalNAc(b1-3)Gal(b1-4)GlcNAc
# Method in brief: as §1
# [16] = molecular target: Neu5Ac(a2-3)Gal(b1-3)GalNAc(b1-4)[Neu5Ac(a2-3)]Gal(b1-4)Glc
# Method in brief: as §1
# [17] = molecular target: Neu5Ac(a2-3)Gal(b1-3)GalNAc6S
# Method in brief: as §1
# [18] = molecular target: Neu5Ac(a2-3)Gal(b1-3)GlcNAc
# Method in brief: as §1
# [19] = molecular target: Neu5Ac(a2-3)Gal(b1-3)GlcNAc(b1-3)Gal(b1-3)GlcNAc
# Method in brief: as §1
# [20] = molecular target: Neu5Ac(a2-3)Gal(b1-3)GlcNAc6S
# Method in brief: as §1
# [21] = molecular target: Neu5Ac(a2-3)Gal(b1-3)[Fuc(a1-4)]GlcNAc
# Method in brief: as §1
# [22] = molecular target: Neu5Ac(a2-3)Gal(b1-3)[Fuc(a1-4)]GlcNAc(b1-3)Gal(b1-4)[Fuc(a1-3)]GlcNAc
# Method in brief: as §1
# [23] = molecular target: Neu5Ac(a2-3)Gal(b1-3)[Neu5Ac(a2-3)Gal(b1-4)]GlcNAc
# Method in brief: as §1
# [24] = molecular target: Neu5Ac(a2-3)Gal(b1-3)[Neu5Ac(a2-6)]GalNAc
# Method in brief: as §1
# Neu5Ac(a2-3)Gal(b1-4)Glc = molecular target: Neu5Ac(a2-3)Gal(b1-4)Glc
# Method in brief: as §1
# [25] = molecular target: Neu5Ac(a2-3)Gal(b1-4)GlcNAc
# Method in brief: as §1
# [26] = molecular target: Neu5Ac(a2-3)Gal(b1-4)GlcNAc(b1-2)Man(a1-3)[GlcNAc(b1-2)Man(b1-4)GlcNAc(b1-2)Man(a1-6)]Man(b1-4)GlcNAc(b1-4)GlcNAc
# Method in brief: as §1
# [27] = molecular target: Neu5Ac(a2-3)Gal(b1-4)GlcNAc(b1-2)Man(a1-3)[Neu5Ac(a2-6)Gal(b1-4)GlcNAc(b1-2)Man(a1-6)]Man(b1-4)GlcNAc(b1-4)GlcNAc
# Method in brief: as §1
# [28] = molecular target: Neu5Ac(a2-3)Gal(b1-4)GlcNAc(b1-3)Gal(b1-3)GlcNAc
# Method in brief: as §1
# [29] = molecular target: Neu5Ac(a2-3)Gal(b1-4)GlcNAc(b1-3)Gal(b1-4)GlcNAc
# Method in brief: as §1
# [30] = molecular target: Neu5Ac(a2-3)Gal(b1-4)GlcNAc(b1-3)Gal(b1-4)GlcNAc(b1-3)Gal(b1-4)GlcNAc
# Method in brief: as §1
# [31] = molecular target: Neu5Ac(a2-3)Gal(b1-4)GlcNAc(b1-3)Gal(b1-4)[Fuc(a1-3)]GlcNAc
# Method in brief: as §1
# [32] = molecular target: Neu5Ac(a2-3)Gal(b1-4)GlcNAc(b1-6)[Gal(b1-3)]GalNAc
# Method in brief: as §1
# [33] = molecular target: Neu5Ac(a2-3)Gal(b1-4)GlcNAc(b1-6)[Neu5Ac(a2-3)Gal(b1-3)]GalNAc
# Method in brief: as §1
# [34] = molecular target: Neu5Ac(a2-3)Gal(b1-4)GlcNAc6S
# Method in brief: as §1
binder,measurement,setting,value
B1,glycan array binding signal (z-score),GlcNAc(b1-6)GalNAc,-0.254
same,glycan array binding signal (z-score),GlcNAc3Prop(b1-4)GlcNAc,-0.231
same,glycan array binding signal (z-score),Kdn(a2-3)Gal(b1-3)GlcNAc,-0.342
same,glycan array binding signal (z-score),Kdn(a2-3)Gal(b1-4)GlcNAc,-0.191
same,glycan array binding signal (z-score),[1],-0.04
same,glycan array binding signal (z-score),[2],-0.392
same,glycan array binding signal (z-score),Man(a1-2)Man(a1-3)Man,-0.154
same,glycan array binding signal (z-score),[3],-0.217
same,glycan array binding signal (z-score),[4],-0.181
same,glycan array binding signal (z-score),[5],0.187
same,glycan array binding signal (z-score),[6],-0.335
same,glycan array binding signal (z-score),[7],0.316
same,glycan array binding signal (z-score),[8],-0.061
same,glycan array binding signal (z-score),Man(a1-3)[Man(a1-6)]Man,-0.361
same,glycan array binding signal (z-score),[9],0.11
same,glycan array binding signal (z-score),[10],-0.205
same,glycan array binding signal (z-score),[11],-0.052
same,glycan array binding signal (z-score),[12],0.332
same,glycan array binding signal (z-score),Man(a1-6)Man,-0.32
same,glycan array binding signal (z-score),Man(b1-4)GlcNAc,-0.214
same,glycan array binding signal (z-score),Neu5Ac(a2-3)Gal,-0.169
same,glycan array binding signal (z-score),[13],-0.268
same,glycan array binding signal (z-score),[14],-0.258
same,glycan array binding signal (z-score),[15],-0.166
same,glycan array binding signal (z-score),[16],-0.144
same,glycan array binding signal (z-score),[17],0.282
same,glycan array binding signal (z-score),[18],-0.331
same,glycan array binding signal (z-score),[19],-0.128
same,glycan array binding signal (z-score),[20],0.215
same,glycan array binding signal (z-score),[21],6.36
same,glycan array binding signal (z-score),[22],3.52
same,glycan array binding signal (z-score),[23],-0.296
same,glycan array binding signal (z-score),[24],0.025
same,glycan array binding signal (z-score),Neu5Ac(a2-3)Gal(b1-4)Glc,-0.135
same,glycan array binding signal (z-score),[25],-0.207
same,glycan array binding signal (z-score),[26],0.061
same,glycan array binding signal (z-score),[27],-0.191
same,glycan array binding signal (z-score),[28],-0.141
same,glycan array binding signal (z-score),[29],-0.33
same,glycan array binding signal (z-score),[30],-0.133
same,glycan array binding signal (z-score),[31],-0.01
same,glycan array binding signal (z-score),[32],-0.229
same,glycan array binding signal (z-score),[33],-0.276
same,glycan array binding signal (z-score),[34],-0.077

# Reference: the supplement of paper PMC8728848
